Some test systems named below: WM1745; WM3526; WM3619; WM451Lu.
What all share (test): cell count relative to DMSO control; melanoma cells; higher = more viable cells
Holding throughout (details): library dose: low library concentration; 72 h

Results on 30 compounds are retold here after the supplement of paper PMC4604168 (melanoma cell lines).

Molecules are shown by their SMILES. The list shows a part of the results. Single values are uncertain, as repeats are few or missing.
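Further: cell number obtained by counting DAPI-stained nuclei in high-throughput microscope images with image analysis software, screen run in 1,536-well plates.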

For `COc1ccc(-c2ccc3c(N4CCOCC4)nc(N4C[C@@H](C)O[C@@H](C)C4)nc3n2)cc1CO` + CCN(CC)CCCCNc1ncc2cc(-c3cc(OC)cc(OC)c3)c(NC(=O)NC(C)(C)C)nc2n1 [PD173074] (first compound 0.02 µM, partner dose 0.1 µM), the cell count in the test with WM1745 is 94.7%; in the test on WM3526 it was 87.4%; in the test on WM3619 it was 81.7%; in the test with WM451Lu, 107%.

Take `O=C1NC(=O)/C(=C/c2ccc(-c3ccc(F)cc3O)o2)S1` + COc1cc(N2CCC(N3CCN(C)CC3)CC2)ccc1Nc1ncc(Cl)c(Nc2ccccc2S(=O)(=O)C(C)C)n1 [NVP-TAE684] (first compound 1 µM, partner dose 0.08 µM): the cell count with WM1745 amounted to 105%; in the test with WM3526, 59.2%; in the test on WM3619 it was 96.2%; in the test on WM451Lu, 98.7%.

Take `O=S(=O)(c1ccccc1)N(CC(F)(F)F)c1ccc(C(O)(C(F)(F)F)C(F)(F)F)cc1` + Oc1cc(-c2nc(-c3ccccc3)[nH]c2-c2ccncc2)ccc1Cl [L779450] (first compound 1.4 µM, partner dose 0.2 µM): the cell count in the test on WM1745 worked out at 85.8%; in the test with WM3526, 70.1%; in the test with WM3619, 76.6%; in the test with WM451Lu, 103%.

In the case of `COc1ccc(COc2ccc(Cc3cnc(N)nc3N)cc2OC)cc1` + O=c1cc(-c2cccc3c2Sc2ccccc2S3)oc(N2CCOCC2)c1 [KU55933] (first compound 1 µM, partner dose 1 µM), the cell count was determined as 86.5% in the test on WM1745, 89.3% in the test with WM3526, 114% in the test on WM3619 and 101% with WM451Lu.

With `CCCCCCCCCCCC1=C(O)C(=O)C=C(O)C1=O` [Embelin] + CC(C)CCN1c2nc(Nc3cc(F)c(O)c(F)c3)ncc2N(C)C(=O)C1C [BID1870] (first compound 1.2 µM, partner dose 0.2 µM), the cell count came to 90.5% in the test with WM1745, 82.3% in the test with WM3526, 117% in the test on WM3619 and 125% in the test with WM451Lu.

Consider `CCN(CC)CCCCNc1ncc2cc(-c3cc(OC)cc(OC)c3)c(NC(=O)NC(C)(C)C)nc2n1` + CC(C)CCN1c2nc(Nc3cc(F)c(O)c(F)c3)ncc2N(C)C(=O)C1C [BID1870] (first compound 0.1 µM, partner dose 0.2 µM), for which the cell count in the test on WM1745 was determined as 88.2%; with WM3526 it was 91.8%; in the test with WM3619, 120%; in the test on WM451Lu, 97.8%.

As for `N#Cc1c(O)c2c(-c3ccc(-c4ccccc4O)cc3)csc2[nH]c1=O` + O=S(=O)(c1ccccc1)N(CC(F)(F)F)c1ccc(C(O)(C(F)(F)F)C(F)(F)F)cc1 [T0901317] (first compound 2 µM, partner dose 1.4 µM), the cell count in the test on WM1745 was found to be 82.3%; with WM3526 it was 88%; in the test on WM3619, 82.2%; with WM451Lu, 89.6%.

As for `COc1ccc(COc2ccc(Cc3cnc(N)nc3N)cc2OC)cc1` + O=S(=O)(c1ccccc1)N(CC(F)(F)F)c1ccc(C(O)(C(F)(F)F)C(F)(F)F)cc1 [T0901317] (first compound 1 µM, partner dose 1.4 µM), the cell count in the test on WM1745 was determined as 88.8%; in the test with WM3526, 78.9%; in the test with WM3619 it was 97.2%; with WM451Lu it was 89.4%.

As for `COc1ccc2c(c1)CCC1C2CCC2(C)C(NCCCCCCN3C(=O)C=CC3=O)CCC12` (stereo not given) + Cn1cc(/C=C2\C(=O)Nc3cccnc32)c2ccccc21 [GW441756] (first compound 0.4 µM, partner dose 0.4 µM), the cell count was found to be 85.8% in the test with WM1745, 122% with WM3526, 96.2% with WM3619 and 116% in the test on WM451Lu.

As for `Cn1cc(/C=C2\C(=O)Nc3cccnc32)c2ccccc21` + CCCCCCCCCCCC1=C(O)C(=O)C=C(O)C1=O [Embelin] (first compound 0.4 µM, partner dose 1.2 µM), the cell count in the test on WM1745 came to 91.8%; with WM3526, 100%; in the test on WM3619, 94.6%; in the test with WM451Lu, 107%.

Take `CCN(CC)CCCCNc1ncc2cc(-c3cc(OC)cc(OC)c3)c(NC(=O)NC(C)(C)C)nc2n1` + Oc1nc(-c2ccc(C(F)(F)F)cc2)nc2c1CSCC2 [XAV939] (first compound 0.1 µM, partner dose 2 µM): the cell count in the test on WM1745 worked out at 85.2%; in the test on WM3526, 104%; in the test on WM3619 it was 101%; with WM451Lu, 122%.

In the case of `COc1ccc2c(c1)CCC1C2CCC2(C)C(NCCCCCCN3C(=O)C=CC3=O)CCC12` (stereo not given) + COc1ccc(-c2ccc3c(N4CCOCC4)nc(N4C[C@@H](C)O[C@@H](C)C4)nc3n2)cc1CO [KU0063794] (first compound 0.4 µM, partner dose 0.02 µM), the cell count with WM1745 is 87.4%; in the test on WM3526, 112%; in the test on WM3619 it was 79.9%; with WM451Lu it was 94%.

Regarding `COC(=O)c1sccc1S(=O)(=O)Nc1ccc(Nc2ccccc2)cc1OC` + CCCCCCCCCCCC1=C(O)C(=O)C=C(O)C1=O [Embelin] (first compound 1 µM, partner dose 1.2 µM), the cell count in the test with WM1745 stood at 97.9%; in the test on WM3526, 120%; in the test on WM3619, 117%; in the test with WM451Lu it was 117%.

Turning to `COc1cc(N2CCC(N3CCN(C)CC3)CC2)ccc1Nc1ncc(Cl)c(Nc2ccccc2S(=O)(=O)C(C)C)n1` + Cn1cc(/C=C2\C(=O)Nc3cccnc32)c2ccccc21 [GW441756] (first compound 0.08 µM, partner dose 0.4 µM), the cell count was 91.9% with WM1745, 89.8% in the test on WM3526, 101% in the test on WM3619 and 99.6% with WM451Lu.

As to `COc1ccc(COc2ccc(Cc3cnc(N)nc3N)cc2OC)cc1` + O=C1NC(=O)/C(=C/c2ccc(-c3ccc(F)cc3O)o2)S1 [AS252424] (first compound 1 µM, partner dose 1 µM), the cell count in the test with WM1745 is 98.2%; in the test on WM3526, 121%; in the test on WM3619, 97.5%; with WM451Lu it was 93.2%.

As for `COc1ccc2c(c1)CCC1C2CCC2(C)C(NCCCCCCN3C(=O)C=CC3=O)CCC12` (stereo not given) + CC(C)CCN1c2nc(Nc3cc(F)c(O)c(F)c3)ncc2N(C)C(=O)C1C [BID1870] (first compound 0.4 µM, partner dose 0.2 µM), the cell count with WM1745 amounted to 101%; in the test with WM3526 it was 92.4%; in the test on WM3619 it was 104%; with WM451Lu it was 117%.

As for `COc1ccc2c(c1)CCC1C2CCC2(C)C(NCCCCCCN3C(=O)C=CC3=O)CCC12` (stereo not given) + COc1cc(N2CCC(N3CCN(C)CC3)CC2)ccc1Nc1ncc(Cl)c(Nc2ccccc2S(=O)(=O)C(C)C)n1 [NVP-TAE684] (first compound 0.4 µM, partner dose 0.08 µM), the cell count in the test on WM1745 was 79.5%; with WM3526, 91.6%; in the test on WM3619, 108%; in the test on WM451Lu it was 102%.

On to `Oc1cc(-c2nc(-c3ccccc3)[nH]c2-c2ccncc2)ccc1Cl` + Oc1nc(-c2ccc(C(F)(F)F)cc2)nc2c1CSCC2 [XAV939] (first compound 0.2 µM, partner dose 2 µM), for which the cell count was determined as 66.9% in the test on WM1745, 74.2% in the test on WM3526, 96.5% in the test on WM3619 and 124% in the test with WM451Lu.

On to `N#Cc1c(O)c2c(-c3ccc(-c4ccccc4O)cc3)csc2[nH]c1=O` + Oc1nc(-c2ccc(C(F)(F)F)cc2)nc2c1CSCC2 [XAV939] (first compound 2 µM, partner dose 2 µM), for which the cell count in the test with WM1745 came to 87%; in the test with WM3526 it was 102%; in the test on WM3619, 84.5%; in the test with WM451Lu, 112%.

Turning to `O=S(=O)(c1ccccc1)N(CC(F)(F)F)c1ccc(C(O)(C(F)(F)F)C(F)(F)F)cc1` + O=C1NC(=O)/C(=C/c2ccc(-c3ccc(F)cc3O)o2)S1 [AS252424] (first compound 1.4 µM, partner dose 1 µM), the cell count in the test on WM1745 is 75.4%; with WM3526, 90.8%; in the test with WM3619, 75.5%; in the test on WM451Lu it was 147%.

With `COc1ccc(COc2ccc(Cc3cnc(N)nc3N)cc2OC)cc1` + CCCCCCCCCCCC1=C(O)C(=O)C=C(O)C1=O [Embelin] (first compound 1 µM, partner dose 1.2 µM), the cell count worked out at 113% in the test on WM1745, 102% in the test with WM3526, 81.4% with WM3619 and 92.4% in the test with WM451Lu.

With `COc1ccc(COc2ccc(Cc3cnc(N)nc3N)cc2OC)cc1` + Oc1cc(-c2nc(-c3ccccc3)[nH]c2-c2ccncc2)ccc1Cl [L779450] (first compound 1 µM, partner dose 0.2 µM), the cell count in the test with WM1745 is 86.8%; in the test with WM3526 it was 76.8%; with WM3619, 92.3%; in the test with WM451Lu, 104%.

Consider `COc1ccc(-c2ccc3c(N4CCOCC4)nc(N4C[C@@H](C)O[C@@H](C)C4)nc3n2)cc1CO` + COc1cc2ncnc(Nc3ccc(Oc4ccccc4)cc3)c2cc1OC [SrcI1] (first compound 0.02 µM, partner dose 2 µM), for which the cell count in the test on WM1745 was 85%; in the test on WM3526 it was 84%; in the test on WM3619 it was 74.6%; in the test on WM451Lu it was 111%.

As to `COc1ccc(-c2ccc3c(N4CCOCC4)nc(N4C[C@@H](C)O[C@@H](C)C4)nc3n2)cc1CO` + CCCCCCCCCCCC1=C(O)C(=O)C=C(O)C1=O [Embelin] (first compound 0.02 µM, partner dose 1.2 µM), the cell count was determined as 94.4% with WM1745, 106% with WM3526, 104% in the test with WM3619 and 103% in the test with WM451Lu.

With `COc1ccc(COc2ccc(Cc3cnc(N)nc3N)cc2OC)cc1` + COc1cc2ncnc(Nc3ccc(Oc4ccccc4)cc3)c2cc1OC [SrcI1] (first compound 1 µM, partner dose 2 µM), the cell count in the test with WM1745 amounted to 80.5%; in the test on WM3526, 112%; in the test on WM3619, 94.8%; in the test on WM451Lu, 102%.

As for `N#Cc1c(O)c2c(-c3ccc(-c4ccccc4O)cc3)csc2[nH]c1=O` + c1cc(-c2cnn3cc(-c4ccc(OCCN5CCCCC5)cc4)cnc23)ccn1 [Dorsomorphin] (first compound 2 µM, partner dose 0.4 µM), the cell count was 95.1% in the test on WM1745, 102% in the test with WM3526, 102% in the test on WM3619 and 109% with WM451Lu.

As for `Oc1nc(-c2ccc(C(F)(F)F)cc2)nc2c1CSCC2` + c1cc(-c2cnn3cc(-c4ccc(OCCN5CCCCC5)cc4)cnc23)ccn1 [Dorsomorphin] (first compound 2 µM, partner dose 0.4 µM), the cell count is 74.9% in the test on WM1745, 99.3% in the test on WM3526, 108% in the test with WM3619 and 114% in the test on WM451Lu.

For `Oc1nc(-c2ccc(C(F)(F)F)cc2)nc2c1CSCC2` + COc1cc(N2CCC(N3CCN(C)CC3)CC2)ccc1Nc1ncc(Cl)c(Nc2ccccc2S(=O)(=O)C(C)C)n1 [NVP-TAE684] (first compound 2 µM, partner dose 0.08 µM), the cell count worked out at 90.7% in the test on WM1745, 115% with WM3526, 78.4% with WM3619 and 104% in the test on WM451Lu.

With `COc1cc2ncnc(Nc3ccc(Oc4ccccc4)cc3)c2cc1OC` + O=c1cc(-c2cccc3c2Sc2ccccc2S3)oc(N2CCOCC2)c1 [KU55933] (first compound 2 µM, partner dose 1 µM), the cell count came out at 79.1% with WM1745, 96% in the test on WM3526, 107% in the test with WM3619 and 103% in the test on WM451Lu.

For `O=C1NC(=O)/C(=C/c2ccc(-c3ccc(F)cc3O)o2)S1` + CC(C)CCN1c2nc(Nc3cc(F)c(O)c(F)c3)ncc2N(C)C(=O)C1C [BID1870] (first compound 1 µM, partner dose 0.2 µM), the cell count with WM1745 was 94.9%; in the test with WM3526, 74.7%; in the test with WM3619, 92.6%; with WM451Lu it was 116%.
